Data reported in the BET-seq Pho4 binding data (Le et al. 2018).
Some of the results follow. The energies were worked out here from pooled read counts, against the library average; single values are noisy.

These sequences were tested against T1, Pho4 (S. cerevisiae) (UniProt P07270) (assay: relative binding free energy (BET-seq); higher = weaker binding). Settings: reference: library average.
T1 sequence: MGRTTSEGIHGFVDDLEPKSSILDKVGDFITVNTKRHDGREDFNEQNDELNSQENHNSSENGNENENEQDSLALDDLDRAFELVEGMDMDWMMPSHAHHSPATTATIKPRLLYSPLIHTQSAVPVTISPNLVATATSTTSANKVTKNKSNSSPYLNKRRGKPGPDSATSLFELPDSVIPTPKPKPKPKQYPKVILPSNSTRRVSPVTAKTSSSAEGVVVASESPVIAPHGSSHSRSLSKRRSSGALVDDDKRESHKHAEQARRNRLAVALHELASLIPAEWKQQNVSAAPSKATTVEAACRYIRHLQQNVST

Row | Sequence | relative binding free energy
1 | ATGGACACGTGTAGTT | 0.09 kcal/mol
2 | TAGTGCACGTGTAGGA | -0.03 kcal/mol
3 | TTTTGCACGTGGTAAA | -0.09 kcal/mol
4 | AGTCTCACGTGAAGGT | 0.36 kcal/mol
5 | TGACTCACGTGTTTGA | 0.19 kcal/mol
6 | GGTGTCACGTGCATTG | 0.05 kcal/mol
7 | GGGCACACGTGGGGAG | -0.05 kcal/mol
8 | GTTTGCACGTGAAAGG | 0.23 kcal/mol
9 | AGGATCACGTGTAATT | 0.12 kcal/mol
10 | TTGCTCACGTGGCGTA | 0.24 kcal/mol
11 | TTTTGCACGTGCTGGT | 0.07 kcal/mol
12 | TGGGACACGTGTCTAT | 0.03 kcal/mol
13 | TAGATCACGTGCTTGT | 0.02 kcal/mol
14 | TGAGGCACGTGGTCAG | -0.19 kcal/mol
15 | GGGGTCACGTGTGATG | 0.33 kcal/mol
16 | AAGGACACGTGTTCGT | 0.09 kcal/mol
17 | TTGCTCACGTGCTTTG | 0.07 kcal/mol
18 | TCTATCACGTGGAGGG | 0.11 kcal/mol
19 | GTTTGCACGTGTTTGT | 0.09 kcal/mol
20 | AAGTTCACGTGGTGTG | 0.16 kcal/mol
21 | TATGACACGTGAACGG | 0.4 kcal/mol
22 | GAATGCACGTGGGGGA | -0.01 kcal/mol
23 | ACGGTCACGTGTTGGG | 0.1 kcal/mol

Row | Sequence | relative binding free energy
24 | TGGAGCACGTGTGCGG | -0.06 kcal/mol
25 | AGGGCCACGTGTTAAG | 0 kcal/mol
26 | TTTACCACGTGTGTTT | 0 kcal/mol
27 | ATAAGCACGTGATGAT | 0.06 kcal/mol
28 | GTCGACACGTGGGAAT | 0.18 kcal/mol
29 | TTTTTCACGTGGGCGA | 0.08 kcal/mol
30 | AGTTTCACGTGTCTTT | 0.46 kcal/mol
31 | TGTGCCACGTGTTAGT | -0.01 kcal/mol
32 | GTGAGCACGTGGCGTT | -0.17 kcal/mol
33 | CGCGTCACGTGTGGTT | 0.08 kcal/mol
34 | GGATGCACGTGGAGAT | 0.01 kcal/mol
35 | ATTTTCACGTGTTCTA | 0.11 kcal/mol
36 | GGGTTCACGTGTGAGC | 0.49 kcal/mol
37 | GCTTACACGTGAGGGT | 0.44 kcal/mol
38 | TATTTCACGTGTTTTC | 0.27 kcal/mol
39 | GGTACCACGTGGTTGT | -0.12 kcal/mol
40 | TTTAGCACGTGTATTA | -0.13 kcal/mol
41 | TTATACACGTGGAGTT | 0.02 kcal/mol
42 | CGTCGCACGTGGAAGG | -0.03 kcal/mol
43 | AGGATCACGTGAGGTC | 0.27 kcal/mol
44 | AAGGTCACGTGGAGGA | 0.07 kcal/mol
45 | GATGGCACGTGGAGCG | 0.02 kcal/mol
46 | TGTCGCACGTGAGTTG | 0.09 kcal/mol

Row | Sequence | relative binding free energy
47 | TGTTACACGTGGATGG | 0.12 kcal/mol
48 | TGATACACGTGTGTTT | 0.07 kcal/mol
49 | GTGGACACGTGAGATT | 0.34 kcal/mol
50 | TGTGTCACGTGGCGCG | -0.02 kcal/mol
51 | GGGTTCACGTGAACTG | 0.41 kcal/mol
52 | ATGGGCACGTGTGGAC | -0.07 kcal/mol
53 | GAGGTCACGTGGTGTC | 0.14 kcal/mol
54 | TGAGCCACGTGGGCTG | -0.17 kcal/mol
55 | GTGGTCACGTGTCTGT | 0.21 kcal/mol
56 | TTTTGCACGTGAGAGG | 0.26 kcal/mol
57 | ATGGACACGTGTGGCG | 0.16 kcal/mol
58 | GTGGACACGTGATGTG | 0.31 kcal/mol
59 | GTGATCACGTGTATCG | 0.23 kcal/mol
60 | GGGCTCACGTGGGCGA | 0.27 kcal/mol
61 | GTGTACACGTGCTTTG | -0.08 kcal/mol
62 | ACAGACACGTGGGTGT | -0.22 kcal/mol
63 | GGATGCACGTGTTATA | -0.03 kcal/mol
64 | TATTTCACGTGGGTAC | 0.3 kcal/mol
65 | TAGGGCACGTGGACCT | -0.03 kcal/mol
66 | TAGTTCACGTGGTGAC | 0.15 kcal/mol
67 | GGCGTCACGTGCAGTG | 0.03 kcal/mol
68 | GTCTGCACGTGTAGCG | 0.12 kcal/mol
69 | GGCTGCACGTGTAGTG | 0.18 kcal/mol

Row | Sequence | relative binding free energy
70 | TCGTGCACGTGACGGT | -0.06 kcal/mol
71 | TTAGACACGTGCTAGG | -0.05 kcal/mol
72 | GGTGTCACGTGGCGAA | 0.03 kcal/mol
73 | GTGTTCACGTGATAGC | 0.49 kcal/mol
74 | TGGGTCACGTGGTTGC | 0.15 kcal/mol
75 | GGTGTCACGTGTGAGT | 0.18 kcal/mol
76 | TAATTCACGTGGTTAA | 0.12 kcal/mol
77 | CATTGCACGTGAGTAT | 0.16 kcal/mol
78 | TGGGACACGTGTTATT | 0.03 kcal/mol
79 | AGTGTCACGTGCGTGC | -0.03 kcal/mol
80 | ATTTTCACGTGGGGGT | 0.19 kcal/mol
81 | CATAGCACGTGGTGTG | -0.21 kcal/mol
82 | GAGGACACGTGTGGGG | 0.16 kcal/mol
83 | TGACGCACGTGAAGTG | 0.19 kcal/mol
84 | CTGGACACGTGTGTAT | 0.19 kcal/mol
85 | TTTAGCACGTGTGGTT | -0.03 kcal/mol
86 | AGTATCACGTGGTGGT | 0.02 kcal/mol
87 | TTTATCACGTGCCGGT | 0.14 kcal/mol
88 | GTGTTCACGTGAATGA | 0.43 kcal/mol
89 | GATTCCACGTGTTTTT | 0.08 kcal/mol
90 | AGTTACACGTGCCGGG | 0.02 kcal/mol
91 | TTGGGCACGTGTCGAA | -0.13 kcal/mol
92 | GGTGTCACGTGAAGCA | 0.28 kcal/mol

Row | Sequence | relative binding free energy
93 | TTTACCACGTGTTATT | 0 kcal/mol
94 | GGCGACACGTGGCGTG | -0.14 kcal/mol
95 | TTGTACACGTGGTTGT | 0.02 kcal/mol
96 | GATTTCACGTGCTATT | 0.18 kcal/mol
97 | TGCGCCACGTGAGGTT | 0.1 kcal/mol
98 | ATTTCCACGTGTGAGT | 0.1 kcal/mol
99 | AAGGACACGTGGTATG | -0.18 kcal/mol
100 | TGGGACACGTGGTATA | -0.02 kcal/mol
101 | TGGGTCACGTGGCCGG | -0.1 kcal/mol
102 | TAATTCACGTGCGTTT | 0.17 kcal/mol
103 | CTGAACACGTGGAGGT | -0.05 kcal/mol
104 | TCGTTCACGTGGTAGG | 0.27 kcal/mol
105 | GTGCACACGTGTGTGG | 0.08 kcal/mol
106 | TGAGGCACGTGAAATT | 0.37 kcal/mol
107 | ATTCACACGTGGAGGG | 0.09 kcal/mol
108 | CGTTCCACGTGGGTGG | -0.16 kcal/mol
109 | TTAGGCACGTGGTGGT | -0.14 kcal/mol
110 | TTTTACACGTGATTAT | 0.14 kcal/mol
111 | ATTTGCACGTGAGACG | 0.23 kcal/mol
112 | CAGATCACGTGAGTTG | 0.36 kcal/mol
113 | TTATACACGTGTGCGG | 0.11 kcal/mol
114 | ACGTTCACGTGGCGGG | 0.06 kcal/mol
115 | GGGCACACGTGGTTTG | 0.07 kcal/mol
